Assay results reported in paper PMC12040169 (PLOS Biology, 2025).
The list shows a part of the results.

system: T1, C. trachomatis L2/434/Bu expressing GFP (CTL2-GFP); design: species or system HeLa; C. trachomatis total inclusion area by high-content imaging, normalised to DMSO; conditions: total inclusion area; 28.5 h, 10 µM; inhibitor
T1 construct: L2/434/Bu GFP intracellular growth in HeLa cells
Summary of the method: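 Imaging read-out: GFP inclusions and Hoechst nuclei captured by high-content imaging after fixation. Inclusion area/number = chlamydial growth; nuclei count = host cell viability. MIC calculated per earlier method.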

Row | SMILES | % of control remaining
1 | COC(=O)c1ccc(/C=C/C2=CCN(C)CC2)cc1 [CBK283744] | 97.0554
2 | Cc1ccc(S(=O)(=O)N2CCN(c3nc(NC(C)c4ccccc4)c4ccccc4n3)CC2)cc1 (stereo not drawn) [CBK266448] | 92.3781
3 | CNC(=O)c1cc2ncc(C(F)(F)F)cc2s1 [CBK089882] | 116.173
4 | Cc1ccc(/N=N/N(CC(O)C(O)C(O)CO)c2ccc(C)c(C)c2)cc1C (stereo not drawn) [CBK262705] | 95.406
5 | c1c2c(cc3sc(N4CCCC4)nc13)OCCO2 [CBK287496] | 121.717
6 | CC(=O)Nc1ccc(S(=O)(=O)N2CCN(c3cc4[nH]c(=O)[nH]c4cc3[N+](=O)[O-])CC2)cc1 [CBK267013] | 105.594
7 | O=C(O)C1CC(=O)N(CCc2ccccc2)/C(=N/CCc2ccccc2)S1 (stereo not drawn) [CBK265558] | 90.7311
8 | O=C(c1ccccc1)N1C[C@@H]2CCCCN(CC3CC3)[C@@H]2C1 [CBK285498] | 84.6601
9 | CC1CCc2nc(NC(=O)Cn3cccc(C(=O)NC4CCCCC4)c3=O)sc2C1 (stereo not drawn) [CBK286064] | 92.2865
10 | Cc1nnc2c(N3CCN(CCO)CC3)nc3ccccc3n12 [CBK270146] | 111.936
11 | O=C(C1CCCCC1)N1CCC(n2c(=O)[nH]c3ccccc32)CC1 [CBK149703] | 86.9431
12 | COc1ccc(-c2ccccc2NC(=O)c2cccc(CN3CCCC3=O)c2)cc1 [CBK285865] | 90.1737
13 | O=C(O)c1cccc(-c2cccc(N3CCN(c4ccccn4)CC3)n2)c1 [CBK036888] | 48.6746
14 | O=C(Cc1c[nH]c2ccccc12)NC1CCCC1 [CBK200238] | 112.491
15 | COC(=O)CCc1ccc(S(=O)(=O)N2CCN(Cc3ccc(O)c(F)c3)CC2)cc1 [CBK062813] | 101.624
16 | Cc1cc(C)n(CC(C)NC(=O)c2cc(C(F)(F)F)nn2C)n1 (stereo not drawn) [CBK281671] | 94.4063
17 | CS(=O)(=O)N1CCc2cc(-c3csc(N)n3)ccc21 [CBK304596] | 114.398
18 | CSc1nnc(-c2sccc2OCc2ccc(Cl)cc2Cl)n1C [CBK067693] | 78.6701
19 | Cc1c(CN2CCCC(c3cc4cccnc4[nH]3)C2)cnn1C (stereo not drawn) [CBK284683] | 51.6522
20 | COC(=O)c1ccc(-c2ccc(OC)c(OC)c2)nc1 [CBK160175T] | 112.779
21 | COc1ccc2c(c1)C1(CC(=O)N(C)C1=O)C(=O)N2CC(=O)O (stereo not drawn) [CBK076118] | 97.0786
22 | O=C(CNC(=O)c1ccc(OC(F)F)cc1)NCCCn1cccn1 [CBK297789] | 87.7352
23 | CN(C)c1ccc(-c2nccnc2NS(=O)(=O)Cc2cccc(Cl)c2)cc1 [CBK050787] | 104.112
24 | CCN(CC)C(=O)CN1C2CCC1CC(O)(c1ccco1)C2 (stereo not drawn) [CBK284094] | 76.0223
25 | CC(Oc1ccccc1)c1nnc(SCC(=O)Nc2cc(Cl)c(Cl)cc2Cl)n1C (stereo not drawn) [CBK266262] | 141.521
26 | CC(=O)Nc1ccc(OCC(O)Cn2cnc3ncccc3c2=O)cc1 (stereo not drawn) [CBK304541] | 23.4785

Row | SMILES | % of control remaining
27 | Cc1ccnn1CCC(=O)N1CCn2cc(C(F)(F)F)nc2C1 [CBK283912] | 60.2109
28 | O=C(CN(Cc1ccc(Cl)cc1Cl)S(=O)(=O)c1ccccc1)Nc1c(F)cccc1F [CBK265801] | 84.618
29 | CC1Cc2cc(CCC(=O)N3CCCc4c(cnn4C)C3)ccc2O1 (stereo not drawn) [CBK282882] | 94.7049
30 | CC(=O)Nc1ccc(-c2ccc(C(=O)N3CCN(C(=O)OCc4ccccc4)CC3)cn2)cc1 [CBK160185] | 78.6878
31 | CCc1n[nH]c(C(=O)N/N=C/c2cccnc2)c1C [CBK263386] | 101.073
32 | Cc1[nH]c(=O)[nH]c(=O)c1CC(=O)N1CCc2ncc(Cl)cc2C1 [CBK286302] | 85.454
33 | Cc1ccc(/C=N\NC(=O)c2cccc(Cl)c2)s1 [CBK016469] | 14.0795
34 | Cc1ccc(C)c(C2CCCN2C(=O)C2CN(C(=O)C3CCN(C)CC3)C2)c1 (stereo not drawn) [CBK286022] | 110.452
35 | CCCN(C)Cc1ccc(-c2cn(CC(=O)NCc3ccc(OCC(F)F)cc3)nn2)cc1 [CBK166365] | 102.554
36 | CCc1cc(NC[C@@H](O)CO)nc(-c2cc(F)c(F)c(F)c2)n1 [CBK132879] | 120.71
37 | COc1ccnc(N2CCN(C(=O)CCc3ccsc3)CC2)n1 [CBK306350] | 43.9538
38 | Cc1[nH]c2ccccc2c1C(=O)C(=O)Nc1sc(C)c(C)c1C#N [CBK270038] | 75.8465
39 | Cc1ccc(Nc2nc(CSc3nnc(-c4ccccc4)o3)cs2)cc1 [CBK268455] | 113.067
40 | O=C(Nc1ccc(-c2ccccc2C(F)(F)F)s1)C(F)(F)F [CBK099942] | 74.6377
41 | COc1cccc(C(=O)Nc2ccc(-c3noc(-c4ccccn4)n3)cc2)c1 [CBK270055] | 111.906
42 | NC(=O)c1sc2nc(-c3cccnc3)ccc2c1N [CBK023645] | 53.7275
43 | Fc1cccc(F)c1OCCOc1nc(N2CCNCC2)ccc1C(F)(F)F [CBK003977A] | 9.569
44 | Cc1ccc2[nH]cc(CCN3CCC4(CC3)NCCc3c4[nH]c4ccc(OCc5ccccc5)cc34)c2c1 [CBK039342] | 58.9706
45 | C(=C\c1nccnc1OCCc1cccs1)/c1ccccc1 [CBK106873] | 86.4274
46 | Nc1ccc2c(O)c(C(=O)NCc3ccc(Cl)cc3)c(=O)[nH]c2c1 [CBK017557] | 84.8473
47 | COCCN1CCn2c(nc3cc(NC(=O)c4ccco4)ccc32)C1 [CBK267990] | 97.9289
48 | COc1ccccc1CN1CCC(Cc2ccccc2-c2ccc(C)cc2C)(C(=O)O)CC1 [CBK286419] | 98.3241
49 | O=C(O)CCSc1nc2ccccc2nc1N1CCCC1 [CBK107862] | 129.735
50 | O=c1c2c([nH]c3nc(COc4ccccc4)nn13)CCC2 [CBK288188] | 131.053
51 | COc1ccc(-c2nn(CC(=O)O)cc2/C=C/c2cc(C(F)(F)F)nc(=O)[nH]2)cc1 [CBK287128] | 106.882
